# From the supplement of paper PMC11417369
# ± gives the standard deviation of the averaged measurements. This is one part of the list.
# Tested on: PfAP2-I AP2 domain 3 (GST-tagged)
# Test: gcPBM binding intensity (ln(normalized median fluorescence intensity)); higher = stronger DNA binding
# Procedure, shortened: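 Binding intensity is defined as the maximum Masliner-normalised natural-log median intensity across replicate spots for either probe orientation. It was measured on an Agilent 4 × 180k array of primer-extended double-stranded 36-bp intergenic genomic probes and negative controls, to which GST-tagged P. falciparum DNA-binding domains made in E. coli were applied for 1 h in 1× PBS with 1% milk, 0.2 mg/ml BSA, 0.5% salmon testes DNA and 0.03% Triton X-100. Detection was by Alexa488 anti-GST antibody and scanning at 488 nm.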
row,Sequence,gcPBM binding intensity (ln)
1,TACTAACTTTTTAAAAGTACAGAACCATAACCATAA [XGTACX_site7182],8.06 ± 0.48
2,GAATAATCTAGAAACACACAAACACGACAAAAGAAA [CACACA_site4135],8.06 ± 0.59
3,AATATCAATATTATATGTACTTATAATTTCAATGTA [XGTACX_site2423],7.66 ± 0.4
4,TAAATTTATTAATCAAGTACAAAATAAATTTTTATA [XGTACX_site2745],7.3 ± 0.29
5,TATATATAGAAACACACACACACATATATATATATA [CACACA_site4116],9.37 ± 0.39
6,AAAATTTAATATAATGCACACATAAAAAAAAAATCA [CACACA_site7882],11.2 ± 0.76
7,TAAAAAAGTTATATTACACACTTTATTGGTTAACTT [CACACA_site653],7.59 ± 0.46
8,ACATATAAATTATATACACACAATAATATATATATA [CACACA_site1384],8.92 ± 0.44
9,TATTTATAAAAAAAATGTACATTTATGTATAAGCTA [XGTACX_site3266],7.77 ± 0.37
10,ATAATGTTTCTTTCAACACACAAAAAATGAACCCAT [CACACA_site4947],8.3 ± 0.45
11,GTATAATTGGAAATTACACACCTTATAATGTAACAT [CACACA_site6091],7.71 ± 0.52
12,AATGATTTTAAAAAATGTACTTTATAAACAAAATTA [XGTACX_site3803],7.57 ± 0.39
13,TTTTTTTTTGTTAGTTGTACGTTAAATGAATTTACT [XGTACX_site7675],7.79 ± 0.71
14,TAAATTAGAATAAATACACACAAATTAGAATTCTAT [CACACA_site7781],7.49 ± 0.7
15,TAAAGTGTCAAATTCACACACATATATATATATATA [CACACA_site1380],9.26 ± 0.11
16,ATATTATATAACTTTTGTACGAACTATTTTATATAT [XGTACX_site6],8 ± 0.33
17,ACCTATGTATATTATACACACTCCAAACTATTCTTT [CACACA_site6939],8.18 ± 0.57
18,TTTAGAGAAGTCAAGTGTACATATAAAATAATTCAC [XGTACX_site4997],7.83 ± 0.56
19,ATAAAAATAAATAAATTATATAAATGTAATATGAAA [GTGCAC_negctrl_site663],7.68 ± 0.24

row,Sequence,gcPBM binding intensity (ln)
1,AAAAAAAAATATATATGTACATATGTATAATAAAAA [XGTACX_site2110],7.92 ± 0.45
2,AATGAAGACTTTTTTACACACTTCATATATTATATA [CACACA_site2034],8 ± 0.73
3,TATTTATTTATATATGCATGCTAATAATTATAACAT [TGCATGCA_site988],7.83 ± 0.54
4,CCAAACTAAATGTACACACATACATAAATATAAATA [CACACA_site1141],7.97 ± 0.18
5,ATGTAATAAATATACACACACAAATATATATATATA [CACACA_site2395],9.47 ± 0.14
6,ATATTTTCAGTTCTCCATTATGTTCCCATTATTTTT [CACACA_negctrl_site990],7.96 ± 0.79
7,CATGAATATTTTAATGTGCACATTTATCATTATATG,9.5 ± 0.21
8,ATATATATATATATTGCACACATATAAATATATATA [CACACA_site8167],10.5 ± 0.47
9,TTTTTGTTTTTTTTGTGTACTTATCAAATATATATA [XGTACX_site7273],7.96 ± 0.45
10,GAAAAATTTAATTATTGTACGTTTCATCTATATTTA [XGTACX_site414],7.72 ± 0.57
11,TACTATATATTATATAGTACATAAGATATACAACAT [XGTACX_site2929],7.81 ± 0.49
12,AAGAAAATTAACCCATGTACTTATGTAGATAGCAAG [XGTACX_site1049],7.87 ± 0.47
13,CAAAAAAAATTATACACACACACACCCATATATATA [CACACA_site1044],8.28 ± 0.67
14,TAAAACTTAATATAAACACACAAAAATTAATAAATA [CACACA_site4370],7.62 ± 0.44
15,CAATATTATAGATATACACACATAATGTGTAAAAAC [CACACA_site6631],7.87 ± 0.79
16,TCTTGATCTTATATATATCTACAATATTTTATACAT [TGCATGCA_negctrl_site569],7.89 ± 0.62
17,ATTACAAATATAATATGTACTTAAATATAATTAAAA [XGTACX_site7038],7.6 ± 0.38
18,ATTACTAAAACAAAATGTACATATGATTTAAGAAAA [XGTACX_site5992],7.69 ± 0.31
19,TTTTTTTTTTAGAGTACACACTTTTTTACATTTATG [CACACA_site5990],8 ± 0.48

row,Sequence,gcPBM binding intensity (ln)
1,AGCCCAAAAAAGTAGACATGCAAAAACTTTACAACT [TGCATGCA_site550],7.8 ± 0.71
2,AAAAAAAAAAAGAAGGGTACATATTATATATAATAT [XGTACX_site6204],7.58 ± 0.42
3,TATATATAAACATAATGTACATATAATAAGTAATAT [XGTACX_site497],7.88 ± 0.54
4,AATTTTCAATAGTATACACACAATTCTATAAATATA [CACACA_site6650],7.66 ± 0.61
5,AATGAGAATTTTATTACACACTTTAATATATTTTCA [CACACA_site784],7.7 ± 0.53
6,CACGTGAAAATACAAGCATGCAAGCTTTTTTTTTCT [TGCATGCA_site642],7.29 ± 0.86
7,AATTTTTTTATAGCACGTACAAAAATACAAAATACA [XGTACX_site1569],9.23 ± 0.071
8,TAGAGGAATATAATATGTACATAATATAATGTATAT [XGTACX_site2838],7.9 ± 0.57
9,AGTGAAATTTTAGTCACACAGTTTTATCTTTAAGAA [CACACA_site5202],7.18 ± 0.66
10,TTATGTCTAATGAAATGTACATGAATAAATTAAAGT [XGTACX_site8138],8.28 ± 0.4
11,AAAAAAATAAATAAATGTACACATATATATATATAT [XGTACX_site4350],9.17 ± 0.028
12,ATCATTTATATTTTATGTACATATATAATTATATTT [XGTACX_site2129],8.01 ± 0.59
13,AATTATATAAGCCACGCATGTGTGCATAAAAATACA [TGCATGCA_site114],11.1 ± 0.34
14,CTTAAAAAAATATATTGTACATATATATATACAACT [XGTACX_site1281],7.83 ± 0.23
15,TATATTCCCATATAACGTACATATGAGACACCAACT [XGTACX_site8099],7.97 ± 0.35
16,GTTTATATATTATAAAGTACATATGAATTTAATAAT [XGTACX_site3601],7.78 ± 0.23
17,ATTTCAAAATATAGCTGTACAAAAAATGTAGATATA [XGTACX_site5843],7.84 ± 0.43
18,AAAAAATAAATAAACATAAATAAATAAATAAATATA [XGTACX_negctrl_site340],7.42 ± 0.73
19,GATCATTCTAAATATAAACACACATAAATATATACA [CACACA_site9108],7.74 ± 0.49
